Measured values reported in patent US20220251221A1 (AGENCY FOR SCIENCE TECHNOLOGY AND RESEARCH, published 2022).

Legend:
[1] = target: T1, recombinant γc-Fc (Homo sapiens (Human), UniProt P31785 23-262); assay: ELISA on coated γc-Fc ('Binding to IL-2RG (Fc)'), biotinylated antibody, streptavidin-HRP, the axis is [Ab]/nM
T1 construct: also called CD132-Fc; not shown: Fc part of the fusion not described
T1 sequence: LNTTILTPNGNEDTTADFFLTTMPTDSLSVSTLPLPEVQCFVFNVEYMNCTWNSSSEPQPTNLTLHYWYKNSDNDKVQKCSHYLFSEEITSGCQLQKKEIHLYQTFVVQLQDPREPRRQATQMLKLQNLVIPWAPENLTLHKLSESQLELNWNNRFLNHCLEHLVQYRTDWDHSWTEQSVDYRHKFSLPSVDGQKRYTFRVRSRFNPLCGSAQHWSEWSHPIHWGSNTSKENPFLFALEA
Protocol: (§1) Binding of P2C4/P1A3 to IL-2Rβ or γc was measured by ELISA analysis, using recombinant IL-2Rβ-Fc and γc-Fc coated on maxisorp plates.
(§2) Biotinylated P2C4/P1A3 was added at various concentrations. Detection of binding was performed using a colorimetric assay using HRP-conjugated streptavidin which converts TMB substrate to a blue solution. The reaction was stopped using hydrochloric acid, and absorbance was measured at 450 nm and 670 nm.

[2] = target: T2, IL-2Rβ and γc expressed natively on human cells (primary human T cells and PBMC subsets, EBV-specific T … (human, UniProt P14784 27-551; P31785 23-369); assay: cell-based or functional assay
T2 sequence 1: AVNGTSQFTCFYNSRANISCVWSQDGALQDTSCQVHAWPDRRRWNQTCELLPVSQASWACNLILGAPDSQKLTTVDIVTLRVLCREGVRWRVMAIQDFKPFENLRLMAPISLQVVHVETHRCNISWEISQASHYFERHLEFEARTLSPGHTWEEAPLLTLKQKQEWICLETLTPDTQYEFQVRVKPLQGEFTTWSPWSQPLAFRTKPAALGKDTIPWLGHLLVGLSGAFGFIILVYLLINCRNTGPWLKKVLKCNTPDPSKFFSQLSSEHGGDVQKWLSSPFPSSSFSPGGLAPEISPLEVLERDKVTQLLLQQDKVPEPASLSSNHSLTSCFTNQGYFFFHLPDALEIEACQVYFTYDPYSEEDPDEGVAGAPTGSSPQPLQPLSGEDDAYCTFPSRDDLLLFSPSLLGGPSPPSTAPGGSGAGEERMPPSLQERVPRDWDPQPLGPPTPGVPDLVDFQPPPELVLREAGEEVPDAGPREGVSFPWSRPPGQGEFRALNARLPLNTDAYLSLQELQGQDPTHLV
T2 sequence 2: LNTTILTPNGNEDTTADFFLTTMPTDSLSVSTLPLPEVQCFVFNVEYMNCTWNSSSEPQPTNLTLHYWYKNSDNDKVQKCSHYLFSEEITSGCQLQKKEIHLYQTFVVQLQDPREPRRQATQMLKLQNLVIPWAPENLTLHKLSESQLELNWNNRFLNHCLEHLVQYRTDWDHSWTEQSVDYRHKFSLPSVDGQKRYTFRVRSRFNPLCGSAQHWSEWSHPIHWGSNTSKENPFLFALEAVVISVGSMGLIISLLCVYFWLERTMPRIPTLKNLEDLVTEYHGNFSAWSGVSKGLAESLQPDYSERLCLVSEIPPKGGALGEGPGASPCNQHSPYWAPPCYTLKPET

[3] = target: T3, recombinant IL-2Rβ-Fc (Homo sapiens (Human), UniProt P14784 27-240); assay: ELISA on coated IL-2Rβ-Fc ('Binding to IL-2RB (Fc)'), biotinylated antibody, streptavidin-HRP, the axis is [Ab]/nM
T3 construct: also called CD122-Fc; not shown: Fc part of the fusion not described
T3 sequence: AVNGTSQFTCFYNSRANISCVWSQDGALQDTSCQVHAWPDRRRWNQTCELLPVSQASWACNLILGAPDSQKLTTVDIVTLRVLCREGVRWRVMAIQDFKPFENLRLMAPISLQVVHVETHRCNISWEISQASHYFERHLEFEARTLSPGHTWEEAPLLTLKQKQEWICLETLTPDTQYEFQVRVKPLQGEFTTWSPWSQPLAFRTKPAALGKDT
Protocol: as §1, §2

[4] = target: T4, monomeric γc (Homo sapiens (Human), UniProt P31785 23-262, limits assumed); assay: BLI, antibody captured on anti-human Fc biosensor tips, monomeric γc in solution, 1:1 Langmuir fit
T4 construct: Neither the limits nor the species of the construct are stated; also called CD132; common γ chain
T4 sequence: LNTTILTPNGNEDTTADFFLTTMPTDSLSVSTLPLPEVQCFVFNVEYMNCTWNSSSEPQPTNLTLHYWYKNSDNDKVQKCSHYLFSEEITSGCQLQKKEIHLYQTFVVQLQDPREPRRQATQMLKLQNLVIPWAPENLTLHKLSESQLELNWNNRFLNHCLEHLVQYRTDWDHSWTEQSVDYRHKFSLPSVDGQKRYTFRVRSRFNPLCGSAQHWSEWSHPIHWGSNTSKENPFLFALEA
Protocol: (§3) The affinity of binding of P2C4/P1A3 and P2C4/P1A10 to IL-2Rβ and γc was measured by Bio-Layer Interferometry (BLI).
(§4) P2C4/P1A3 or P2C4/P1A10 were captured on anti-human Fc biosensor tips, and 5 different concentrations of monomeric IL-2Rβ or γc were allowed to bind to the captured antibodies. Dissociation of the antigen from the immobilised antibodies was performed for 5 min. Binding affinity was calculated by fitting binding curves using the 1:1 Langmuir model.

[5] = target: T5, monomeric IL-2Rβ (Homo sapiens (Human), UniProt P14784 27-240, limits assumed); assay: BLI, antibody captured on anti-human Fc biosensor tips, monomeric IL-2Rβ in solution, 1:1 Langmuir fit
T5 construct: Neither the limits nor the species of the construct are stated; also called CD122
T5 sequence: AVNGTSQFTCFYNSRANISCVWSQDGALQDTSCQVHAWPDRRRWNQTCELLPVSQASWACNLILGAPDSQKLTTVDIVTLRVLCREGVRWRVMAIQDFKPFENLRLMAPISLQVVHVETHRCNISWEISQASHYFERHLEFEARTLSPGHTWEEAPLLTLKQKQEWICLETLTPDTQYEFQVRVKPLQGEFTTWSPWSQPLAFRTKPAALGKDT
Protocol: as §3, §4

B1: P2C4/P1A3 bispecific anti-IL-2Rβ/γc antibody, scFv-KiH-Fc format (bispecific antibody)
chain 1: EVQLVQSGAEVKKPGSSVKVSCKASGYTFTNYYMHWVRQAPGQGLEWMGAIMPSRGGTSYPQKFQGRVTMTGDTSTSTVYMELSSLRSEDTAVYYCARGEYYYDSSGYYYWGQGTLVTVSSGGGGSGGGGSGGGGSQSALTQPASVSGSPGQSIAISCTGTSSDIGHYDFVSWYQQHPGTAPKLIIYDINNRPSGISNRFSGSKSDNMASLTISGLQPEDEADYYCSAYTSSDTLVFGGGTKLTVLNSGAGTA[sequence of human IgG1 Fc with changes and a few adjoining residues not given]
chain 2: QVQLQQWGAGLLKPSETLSLTCAVYGGSFSGYYWSWIRQPPGKGLEWIGEINHSGSTNYNPSLKSRATISVDTSKNQFSLKLSSVTAADTAVYYCATSPGGYSGGYFQHWGQGTLVTVSSGGGGSGGGGSGGGGS[sequence of about 100 residues not given]YCMQGTHWPWTFGQGTKVEIKNSGAGTAAATHTCPPCPAPEAAGGPSVFLFPPKPKDTLMISRTPEVTCVVVDVSHEDPEVKFNWYVDGVEVHNAKTKPREEQYNSTYRVVSVLTVLHQDWLNGKEYKCKVSNKALPAPIEKTISKAKGQPREPQVCTLPPSRDELTKNQVSLSCAVKGFYPSDIAVEWESNGQPENNYKTTPPVLDSDGSFFLCVSKLTVDKSRWQQGNVFSCSVMHEALHNHYTQKSLSLSPGK
notes: also called scFv (P2C4): scFv (P1A3)-KiH-Fc
[1]
  EC50: 2.69 nM
[2]
  EC50 of NK92 cell proliferation (alamarBlue, 3 days): 0.43 nM
[3]
  EC50: 0.416 nM
[4]
  Kd: 84.7 nM
  koff: 0.00442 s⁻¹
  kon: 52200 M⁻¹ s⁻¹
[5]
  Kd: 30 nM
  koff: 0.00662 s⁻¹
